Test results published in PubChem BioAssay AID493208 (National Center for Advancing Translational Sciences (NCATS), 2011).
Screen size: about 44,000 compounds; about 340 (0.77%) were called active. Roughly 5% stayed inconclusive and do not appear here. The call rests on the fitted dose curve; in most records, active means well fitted inhibition curve with a large enough effect; inconclusive means small, poorly fitted or top-dose-only effect; inactive means flat fitted curve, though single readings scatter. The list shows a part of the results.

test: Acumen qHTS Assay for Inhibitors of the mTORC1 Signaling Pathway in MEF (Tsc2-/-, p53-/-) Cells: Sytravon; settings: phospho-rpS6 immunofluorescence/PI, 24 h; series mostly up to 38.3 µM; activity change, negative = inhibition: at the top concentration; further: nearly all actives have a fitted effect of over 50% in size;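 on activity change, negative = inhibition: plate controls were DMSO for no effect and rapamycin for full effect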
Procedure, shortened: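 Plate MEFs (Tsc2-/-, p53-/-, empty vector) in DMEM/10% FBS; after 24 h add compound, incubate 24 h at 37 degree Celsius; fix in PFA/TX-100, block, stain phospho-rpS6 and 10 uM PI; scan at 488 nm; report % positive cells.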
Potency means the concentration at half of the fitted maximal effect.

| Compound | activity change, negative = inhibition | Potency |
| --- | --- | --- |
| COCc1cc(C)nc2c1C(=O)NC(c1ccc(Br)cc1)N2Cc1ccccc1 (centres undefined) | inactive: 3.22% | – |
| COc1cccc(N2CCN(C(=O)Cn3nc(C)n4c(cc5c(OC)cccc54)c3=O)CC2)c1 | inactive: -1.93% | – |
| CCc1ccc(-n2nnc(-c3nc(-c4ccc(C)cc4)no3)c2N)cc1 | inactive: -10.6% | – |
| COc1cc(Cl)c(C)cc1NC(=O)Cn1c2ncccc2c(=O)n1-c1ccccc1 | inactive: -1.25% | – |
| COc1ccc(Cl)cc1C(=O)NCc1nnnn1-c1ccccc1 | inactive: 0% | – |
| O=C(Nc1sc2c(c1C(=O)NCc1ccccc1)CCCC2)c1cc(=O)c2ccccc2o1 | inactive: 1.57% | – |
| CCc1ccc(NC(=O)C(=O)NCC(c2cccnc2)N2CCc3ccccc3C2)cc1 (centres undefined) | inactive: 6.92% | – |
| O=C(NCc1ccc(Cl)cc1)C1CCN(c2ncnc3c2nc2n3CCCCC2)CC1 | inactive: -0.407% | – |
| CCc1ccc(NC(=O)CSc2nc3c(c(=O)[nH]2)CN(Cc2ccc(C)cc2)CC3)cc1 | inactive: 1.59% | – |
| CCOc1ccccc1C(=O)NCC(c1cccs1)S(=O)(=O)c1ccc(F)c(C)c1 (centres undefined) | inactive: -10.4% | – |
| CC1CCN(C(=O)Cn2cc(SCC(=O)Nc3ccccc3)c3ccccc32)CC1 | inactive: 0% | – |
| COc1cccc(-c2nc(SCC(=O)NCc3ccco3)c3c(=O)n(C)c(=O)n(C)c3n2)c1 | inactive: 5.4% | – |
| COc1ccc(Cn2c(=O)n(-c3ccc(OC)cc3)c(=O)c3c2c2cc(OC)ccc2n3C)cc1 | inactive: 0.224% | – |
| CCN(CC)S(=O)(=O)c1ccc2c(c1)c(=O)c(C(=O)NCc1ccccc1Cl)cn2C | inactive: -8.37% | – |
| COc1ccc(-c2cc(C)no2)cc1S(=O)(=O)NCc1ccco1 | inactive: 0% | – |
| COc1cc(NC(=O)c2c3c(nc4ccccc24)C(=O)N(C2CCCCC2)C3)cc(OC)c1 | inactive: -6.52% | – |
| CCOC(=O)c1c(-c2ccc(C)cc2)csc1NC(=O)c1cc(=O)c2cc(C)cc(C)c2o1 | inactive: 0.353% | – |
| O=C(CSc1c2c(nc3cc(Cl)ccc13)CCCC2)N1CCN(c2ccccc2)CC1 | inactive: -27.3% | – |
| Cc1ccc(S(=O)(=O)Cc2nc(-c3ccc(C(=O)NCc4ccccc4C)cc3)oc2C)cc1 | inactive: -1.56% | – |
| COc1ccc(Cn2ccn(Cc3cccc(Cl)c3)c(=O)c2=O)cc1 | inactive: 8.65% | – |
| CC(=O)c1ccc(NC(=O)C2=CC(c3ccc(C)cc3)=NS(=O)(=O)N2C)cc1 | inactive: -2.67% | – |
| CCCn1cc(S(=O)(=O)c2ccc(OC)cc2)c(=O)c2cc(F)c(N3CCCC(C)C3)cc21 (centres undefined) | inactive: -1.15% | – |
| O=C(COc1ccccc1F)Nc1c(C(=O)Nc2cccc(F)c2)oc2ccccc12 | inactive: -4.16% | – |
| Cc1ccc(C(=O)Nc2nc3nc(-c4ccccc4)cc(=O)n3[nH]2)cc1 | inactive: -0.949% | – |

| Compound | activity change, negative = inhibition | Potency |
| --- | --- | --- |
| CCCCCOC(=O)CSc1nc2sc3c(c2c(=O)n1-c1ccccc1)CC(C)(CC)OC3 (centres undefined) | inactive: 4.72% | – |
| O=C(Nc1cc(-c2ccccc2F)nn1-c1ccccc1)c1ccccc1Br | inactive: -11.7% | – |
| Cc1ccc(CNC(=O)CCS(=O)(=O)c2cc3c(cc2C)NC(=O)CO3)cc1 | inactive: 5.9% | – |
| O=C(CSc1nc2c(oc3ccccc32)c(=O)n1Cc1ccco1)Nc1ccccc1 | inactive: 0.208% | – |
| CCCSC1=NC2(CCN(C(=O)NC3CCCCC3)CC2)N=C1c1ccc(Cl)cc1 | inactive: -2.82% | – |
| Cc1ccc(CN2CCCN(Cc3c(C)cc(C)cc3C)S2(=O)=O)cc1 | inactive: -11.8% | – |
| Cc1cccc(CSc2nc(-c3cccc(C)c3)nc3c2Cc2c(CO)cnc(C)c2O3)c1 | inactive: -2.24% | – |
| CC(C)(C)C(=O)OCc1cc(=O)n2nc(C3CC3)sc2n1 | inactive: -0.922% | – |
| COc1ccc(C)cc1NC(=O)COCc1cc(-c2ccc(F)cc2)on1 | inactive: 2.47% | – |
| Cc1ccc(N2CCN(S(=O)(=O)c3c(C)[nH]c(=O)[nH]c3=O)CC2C)cc1 (centres undefined) | inactive: 1.35% | – |
| Cc1nn(Cc2noc(C(=O)NC(C)c3ccccc3)n2)c(C)c1Br (centres undefined) | inactive: -1.03% | – |
| COc1cc(Cl)c(C)cc1NC(=O)Cn1cc(S(=O)(=O)N2CCC(C)CC2)c2ccccc2c1=O | inactive: -11.4% | – |
| CCCN(CCC)c1nn2c(=O)c(C(=O)NCc3cc(Br)ccc3OC)cnc2s1 | inactive: -8.12% | – |
| CCOC(=O)c1cc(-c2ccccc2)n(CC(=O)Nc2ccc(CC)cc2)c1C | inactive: -6.32% | – |
| COc1ccc(OC)c(CCNC(=O)CCn2c(=O)c3cccn3c3ccc(F)cc32)c1 | inactive: -19.3% | – |
| Cc1cccc(S(=O)(=O)c2cn(C)c3cc(N4CCN(c5ccc(F)cc5)CC4)c(F)cc3c2=O)c1 | inactive: -8.71% | – |
| CC(C)c1ccc(NC(=O)CSC2=Nc3ccccc3C3=NC(CCC(=O)NCc4ccco4)C(=O)N23)cc1 (centres undefined) | inactive: -3.43% | – |
| CCCCNC(=O)c1ccccc1NC(=O)CN(c1ccccc1)S(=O)(=O)N(C)C | inactive: 0.209% | – |
| O=C(CSc1nc(=O)n(Cc2ccco2)c2c1CCC2)Nc1ccccc1C(F)(F)F | inactive: -6.47% | – |
| Cc1ccc2c(=O)cc(C(=O)Nc3ccc(S(=O)(=O)N4CCCCCC4)cc3)oc2c1 | inactive: 1.96% | – |
| CCc1nnc(SCC(=O)N(CC)c2ccccc2)c2cc3oc(C)cc3n12 | inactive: 3.78% | – |
| CC(=O)N1CCCc2cc(S(=O)(=O)N3CCC(C(=O)NCc4ccccc4)CC3)ccc21 | inactive: -2.15% | – |
| Cc1ccc(Cl)cc1N1CCN(C(=O)c2cc(S(=O)(=O)N3CCCC3)c[nH]2)CC1 | inactive: 0% | – |
| CCOC(=O)CNC(c1ccccc1)c1cc(Br)ccc1NC(=O)c1cccc(Cl)c1 (centres undefined) | inactive: -9.95% | – |

| Compound | activity change, negative = inhibition | Potency |
| --- | --- | --- |
| CCc1ccc(NC(=O)C2CCCN(S(=O)(=O)c3ccc(F)cc3)C2)cc1 (centres undefined) | inactive: 3.51% | – |
| CCN(Cc1ccccc1)C(=O)Cn1c(=O)n(-c2ccc(Cl)cc2)c(=O)c2c(C)c(C)sc21 | inactive: -6.76% | – |
| Cc1ccc(CN2CCSc3ccc(C(=O)Nc4ccc(C)cc4)cc32)cc1 | inactive: -11.9% | – |
| Cc1ccc(Cn2c(=O)n(Cc3ccco3)c(=O)c3oc4ccccc4c32)cc1 | inactive: -13.3% | – |
| CCOc1ccc(OCC)c(NC(=O)c2cnc(SC)nc2-c2ccccc2)c1 | inactive: -7.65% | – |
| Cc1ccc(C)c(Cn2c(=O)n(-c3ccc(Cl)cc3)c(=O)c3c(C)c(C)sc32)c1 | inactive: -0.923% | – |
| COc1ccc(CC(=O)NCC(c2ccc(Cl)cc2)N2CCOCC2)cc1 (centres undefined) | inactive: -0.332% | – |
| CN(C)S(=O)(=O)c1ccc2c(c1)nnn2CCNC(=O)Nc1ccc(Cl)cc1 | inactive: 10.3% | – |
| Cc1ccc(S(=O)(=O)c2nnn3c2nc(NC2CCCCC2)c2sccc23)cc1 | inactive: -7.59% | – |
| Cc1ccc(Cc2cn3cc(-c4ccccc4)nc3s2)cc1 | inactive: -4.02% | – |
| Cc1ccc(C)c(Oc2nc3c(c(=O)n(C)c(=O)n3C)n2Cc2ccccc2)c1 | inactive: -29% | – |
| Cc1cc(-c2ccc(C)c(S(=O)(=O)NCC3CCN(Cc4ccccc4F)CC3)c2)on1 | inactive: -15.1% | – |
| Cc1ccc(SCC(=O)Nc2ccc3oc(-c4cccc(Cl)c4)nc3c2)cc1 | inactive: -8.18% | – |
| O=C(Cn1ncc2c3ccccc3n(Cc3ccc(F)cc3)c2c1=O)NCc1ccccn1 | inactive: -0.539% | – |
| O=C(NCc1ccccc1)C(=O)Nc1c2c(nn1-c1ccccc1)CSC2 | inactive: -3.12% | – |
| COc1ccc(OC)c(CNCc2c(C(=O)O)n(Cc3cccc(F)c3)c3cc(OC)ccc23)c1 | inactive: 1.8% | – |
| Cc1ccc(C(c2c(O)cc(C)n(Cc3ccco3)c2=O)N2CCC(C)CC2)cc1 (centres undefined) | inactive: 3.93% | – |
| Cc1ccccc1CCNC(=O)c1ccc2c(c1)nc1n2CCCCC1 | inactive: -0.533% | – |
| Cc1cc(C)cc(NC(=O)C2CC(=O)N(c3ccccc3)C2)c1 (centres undefined) | inactive: -8.8% | – |
| Cc1ccc(-c2nc3ccccc3o2)cc1NC(=O)Cc1ccc(Cl)cc1 | inactive: 8.92% | – |
| O=C(CCn1c(=O)c2sccc2n(Cc2ccc(F)cc2Cl)c1=O)NCc1ccc2c(c1)OCO2 | inactive: -10% | – |
| O=C(Nc1sc2c(c1C(=O)NCC1CCCO1)CCCC2)c1cc(=O)c2ccccc2o1 (centres undefined) | inactive: -4.91% | – |
| Cc1cccc(-c2nc(CN3CCCC(C(=O)NCCc4ccc(Cl)cc4)C3)c(C)o2)c1 (centres undefined) | inactive: -17.9% | – |
| COC(=O)c1ccccc1NC(=O)CSc1nc(C)c(Cl)c(C)c1C#N | inactive: 0.769% | – |

| Compound | activity change, negative = inhibition | Potency |
| --- | --- | --- |
| Cc1ccc(-c2cc(C(=O)Oc3ccc(C#N)cc3)no2)cc1C | inactive: -3.98% | – |
| CCOC(=O)c1cccc(NC(=O)c2cnc3sc(N4CCOCC4)nn3c2=O)c1 | inactive: -1.88% | – |
| Cc1ccc2c(c1)c1c(c(=O)n(Cc3ccccc3)c(=O)n1CC(=O)Nc1ccccc1F)n2C | inactive: 1.19% | – |
| O=C(O)c1ccc(Cn2c(SCc3ccc(F)cc3)nc3ccncc32)cc1 | inactive: -0.477% | – |
| Cc1ccc2nc(NC(=O)CSc3nccn3Cc3ccc(F)cc3)sc2c1 | inactive: -14.9% | – |
| COCCNc1ccc2cc(S(=O)(=O)N3CCCCC3)ccc2n1 | inactive: 8.86% | – |
| COCCNC(=O)CCCn1c(SCC(=O)NCc2ccc(C)cc2)nc2c(sc3ccccc32)c1=O | inactive: -11.3% | – |
| CCC(C)NC(=O)c1sc2nc(C)c(C(=O)Nc3ccc(C)cc3C)c(-c3ccc(NC(C)=O)cc3)c2c1N (centres undefined) | inactive: -14.6% | – |
| CCc1ccc(NS(=O)(=O)c2[nH]ncc2C(=O)OC)cc1 | inactive: -2.66% | – |
| Cc1ccccc1Cn1c(=O)n(-c2ccc(Cl)cc2)c(=O)c2c3c(sc21)CCCC3 | inactive: -26% | – |
| COc1ccc(Cn2c(C(=O)O)c(CNCc3ccc(SC)cc3)c3ccc(OC)cc32)cc1 | – | active: 16.5 µM |
| CC(C)NC(=O)CN1C(=O)CCn2nc(-c3cn(C)c4ccccc34)cc21 | inactive: -3.92% | – |
| Cc1cc(F)ccc1NC(=O)C1CCC(CNS(=O)(=O)c2ccc3c(c2)CCCC(=O)N3)CC1 (centres undefined) | inactive: 0.0619% | – |
| Cc1ccccc1NC(=O)c1sc2nc3c(cc2c1N)CN(Cc1ccccc1)CC3 | inactive: -17.7% | – |
| CCCS(=O)(=O)N1CCC(C(=O)NCCOC)CC1 | inactive: 9.37% | – |
| COc1cccc(N2CCN(C(=O)CN3CCSc4ccccc43)CC2)c1 | inactive: -20% | – |
| Cc1ccc(-n2nc(C)c3c(C)cc(=O)n(CC(=O)Nc4cccc(C)c4C)c32)cc1 | inactive: -8.67% | – |
| O=C(Nc1cc2c(cc1C(=O)c1ccccc1Br)OCCO2)c1cccc(Cl)c1 | inactive: 8.44% | – |
| O=C(c1cc2c(=O)oc3ccccc3c2s1)N1CCN(c2ccccc2)CC1 | inactive: 2.83% | – |
| COc1ccc(-c2nn(-c3ccccc3)cc2C2NC(=O)NC(C)=C2C(=O)OC(C)C)cc1OC (centres undefined) | inactive: -8.84% | – |
| Cc1ccc(-c2noc(-c3nnn(-c4cccc(C(F)(F)F)c4)c3N)n2)cc1 | inactive: -10.4% | – |
| COc1ccc(N2C(=O)CSC23C(=O)N(Cc2cccc(F)c2)c2ccccc23)cc1Cl (centres undefined) | inactive: -3.26% | – |
